The structures appear in SMILES notation. Values joined by “and” are separate entries in the source; they are usually repeats but may differ in a detail not shown here. Identical values can stand only once. Counter-ions that a name gives are not always drawn. ± gives the standard deviation of the averaged measurements. Some of the results follow. Single values are uncertain, as repeats are few or missing.

The assay concerns mouse mesenchymal chondrosarcoma cells (HEY1-NCOA2). Kind of assay: XTT absorbance relative to DMSO control (cell viability) (fraction of DMSO control); higher = more viable cells / less growth inhibition. Background: Tetrazolium assays rely on reduction of a dye to a coloured formazan, in cell work by metabolically active cells.
`CC(C)C(=O)Nc1ccc([N+](=O)[O-])c(C(F)(F)F)c1` [Flutamide] had an XTT absorbance of 0.965.

`Cc1ccc(NC(=O)c2cccc(N(C)C)c2)cc1NC(=O)c1ccc(O)cc1` displayed an XTT absorbance of 0.96. As for `NC(=O)c1ccc(-c2nc(-c3ccccn3)c(-c3ccc4c(c3)OCO4)[nH]2)cc1`, the figure is 0.82 and 0.835; as for `Cc1nc2sccn2c(=O)c1CCN1CCC(=C(c2ccccc2)c2ccc(F)cc2)CC1`, 0.946. Then `OCCn1cc(-c2cnc3nnn(Cc4ccc5ncccc5c4)c3n2)cn1`, with 0.911; and `Cc1c(C)c2c(c(C)c1O)CCC(C)(COc1ccc(CC3SC(=O)NC3=O)cc1)O2` (stereo unspecified) [Troglitazone], with 0.939. Then `CCN(CC)CCCCNc1ncc2cc(-c3cc(OC)cc(OC)c3)c(NC(=O)NC(C)(C)C)nc2n1`, with 0.927; and `CO[C@H]1C[C@@H]2CC[C@@H](C)[C@@](O)(O2)C(=O)C(=O)N2CCCC[C@H]2C(=O)O[C@H]([C@H](C)C[C@@H]2CC[C@@H](OCCO)[C@H](OC)C2)CC(=O)[C@H](C)/C=C(\C)[C@@H](O)[C@@H](OC)C(=O)[C@H](C)C[C@H](C)/C=C/C=C/C=C/1C` [everolimus], with 0.799; and `COc1cc2ncc(-c3ccccc3)nc2cc1OC`, with 0.859 ± 0.056.

In turn, `O=[N+]([O-])c1ccc(-c2nc(-c3ccc(F)cc3)c(-c3ccncc3)[nH]2)cc1` registered an XTT absorbance of 0.846. As for `COc1ccc([C@@H]2Sc3ccccc3N(CCN(C)C)C(=O)[C@@H]2OC(C)=O)cc1` [Diltiazem], the figure is 0.942; as for `CN(C)CC(=O)Nc1ccc2[nH]c(=O)c3ccccc3c2c1`, 0.92. Compound `COc1cc2nccc(Oc3ccc(NC(=S)NC(=O)c4ccccc4C)cc3)c2cc1OC` [PDGF receptor tyrosine kinase inhibitor V] yielded an XTT absorbance of 0.759. Compound `CNCCCN1c2ccccc2CCc2ccccc21` [desipramine hydrochloride] had an XTT absorbance of 0.983.

Compound `COc1cccc2c1C(=O)c1c(O)c3c(c(O)c1C2=O)C[C@@](O)(C(=O)CO)C[C@@H]3O[C@H]1C[C@H](N)[C@H](O)[C@H](C)O1` [Doxorubicin, HCl] had an XTT absorbance of 0.248.

For `COc1cc2nc(N3CCCN(C)CC3)nc(NC3CCN(Cc4ccccc4)CC3)c2cc1OC`, the XTT absorbance was found to be 1.01.

Compound `CCOc1nc(NC(=O)Cc2cc(OC)ccc2OC)cc(N)c1C#N` [JNK inhibitor VIII] had an XTT absorbance of 0.913.

`CN(C)CCCCC(=O)Nc1ccc(NC(=S)NC(=O)c2ccc(C(C)(C)C)cc2)cc1` [Tenovin-6] returned an XTT absorbance of 0.747. Then `CNC(=O)c1cc(Oc2ccc(NC(=O)Nc3ccc(Cl)c(C(F)(F)F)c3)cc2)ccn1` [sorafenib], with 1.01; and `Cc1ccc(-c2cn3c4c(sc3n2)CCCC4)cc1` [Pifithrin-a (cyclic)], with 0.965; and `CC(C)[C@H](CO)Nc1nc(Nc2cccc(Cl)c2)c2ncn(C(C)C)c2n1` [purvalanol A], with 0.968. As for `C=CCc1cccc(/C=N/NC(=O)CN2CCN(Cc3ccccc3)CC2)c1O`, the figure is 0.853. As to `Cc1cc(N)c2ccccc2[n+]1CCCCCCCCCC[n+]1c(C)cc(N)c2ccccc21` [Dequalinium], the XTT absorbance was found to be 1.13. As for `Cc1cccc(-c2nn(C(=S)Nc3ccccc3)cc2-c2ccnc3ccccc23)n1`, the figure is 0.807; as for `COC(=O)CNC(=O)C(=O)OC` [Dimethyloxalylglycine], 0.939. `C[C@@H]1C[C@H]2O[C@@H]2/C=C\C=C\C(=O)Cc2c(Cl)c(O)cc(O)c2C(=O)O1` [Radicicol] displayed an XTT absorbance of 0.55.

`C[C@]1(c2nc3c(C(N)=O)cccc3[nH]2)CCCN1` [ABT-888 (Veliparib)]: the XTT absorbance was 0.98. Then `O=C(NCc1ccccc1)c1csc(Nc2ccncn2)n1` [Thiazovivin], with 0.903; and `N#CC(=C(/N)Sc1ccccc1N)/C(C#N)=C(/N)Sc1ccccc1N`, with 0.871 and 0.838; and `CCOC(=O)C1=C(N)Oc2ccc(Br)cc2C1C(C#N)C(=O)OCC` (stereo unspecified), with 1.02. On to `CSCC[C@H](NC(=O)c1ccc(NC[C@@H](N)CS)cc1-c1ccccc1)C(=O)O`, for which the XTT absorbance worked out at 0.958. `CC[n+]1c(/C=C/N(C)c2ccccc2)n(-c2ccccc2)c2ccc(-c3nc4ccccc4s3)cc21` [Akt Inhibitor IV] returned an XTT absorbance of 1.05. As for `O=C1Cc2c([nH]c3ccc(Br)cc23)-c2ccccc2N1` [Kenpaullone], the figure is 0.882 ± 0.14; as for `CC(ONC(=O)c1cc(C(F)(F)F)cc(C(F)(F)F)c1)C(=O)Nc1ccc(Cl)cc1` (stereo unspecified), 1.01; as for `CC(C)[C@H](CO)Nc1nc(Nc2cccc(Cl)c2)c2ncn(C(C)C)c2n1` [Purvalanol A], 0.994. The compound `N#C/C(=C\c1ccc(O)c(O)c1)C(=O)NCc1ccccc1` displayed an XTT absorbance of 0.858 ± 0.057.

For the origin of these results see the supplement of paper PMC10322689.
